According to the supplement of paper PMC3334620:
Over roughly 33,000 sequences, “E-score (-0.5 to 0.5)” has its median near -0.021; the highest 2% begin near 0.32. Some of the results follow.

biological target: T1, Zap1 (UniProt P47043); experiment: PBM E-score (8-mer binding enrichment) (E-score (-0.5 to 0.5)); higher = stronger / more preferred TF binding; most listed sequences are background and not binding sites; conditions: protein concentration: 200 nM; construct: GST-full length
T1 sequence: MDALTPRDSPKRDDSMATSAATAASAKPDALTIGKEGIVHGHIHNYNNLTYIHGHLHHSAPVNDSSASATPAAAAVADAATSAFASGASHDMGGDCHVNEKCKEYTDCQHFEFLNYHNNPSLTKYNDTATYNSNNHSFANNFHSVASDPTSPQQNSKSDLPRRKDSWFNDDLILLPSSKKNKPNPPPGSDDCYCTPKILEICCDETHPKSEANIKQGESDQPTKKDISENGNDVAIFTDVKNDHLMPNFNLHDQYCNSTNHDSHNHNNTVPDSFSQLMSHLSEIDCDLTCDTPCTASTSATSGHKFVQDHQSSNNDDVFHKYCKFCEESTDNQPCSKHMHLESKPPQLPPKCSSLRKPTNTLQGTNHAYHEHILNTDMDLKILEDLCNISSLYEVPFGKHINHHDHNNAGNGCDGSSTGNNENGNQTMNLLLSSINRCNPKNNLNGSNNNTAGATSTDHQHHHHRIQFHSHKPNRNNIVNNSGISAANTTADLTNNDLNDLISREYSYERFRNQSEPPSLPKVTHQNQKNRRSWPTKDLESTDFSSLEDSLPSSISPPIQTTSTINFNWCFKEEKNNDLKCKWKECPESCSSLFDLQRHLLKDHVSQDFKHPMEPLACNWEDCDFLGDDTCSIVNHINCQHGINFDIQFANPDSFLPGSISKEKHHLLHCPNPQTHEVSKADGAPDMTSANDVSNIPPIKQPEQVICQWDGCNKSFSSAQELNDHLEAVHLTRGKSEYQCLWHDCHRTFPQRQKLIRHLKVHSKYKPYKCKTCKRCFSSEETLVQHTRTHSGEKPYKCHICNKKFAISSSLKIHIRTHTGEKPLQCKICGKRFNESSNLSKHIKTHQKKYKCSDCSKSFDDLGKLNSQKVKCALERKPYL
Outline: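 For each ungapped eight-base word taken together with its reverse complement, the Universal PBM Analysis Suite assigned an E-score. Binding data came from GST-tagged yeast transcription factors, applied at about 100-200 nM, on universal all-10-mer Agilent arrays made double-stranded by primer extension. Fluorescent anti-GST marked bound protein, and scans were normalised with masliner.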

Sequence	PBM E-score
AAGGAGCG	-0.342
AAGACGTG	-0.212
GCATAGTA	0.00036
AGATTGAT	-0.0444
GCCGTCTA	-0.096
CATGTTGA	0.128
CCATGCTA	-0.245
ATCTGTCG	0.00666
TCTTCAAA	0.09
ATCCCTTA	0.0364
CACACCTG	-0.0111
ATAATGAG	0.0767
GCCTACCA	0.0287
AGGCACGG	-0.156
CTCAGTTC	-0.0178
AAACTGAT	-0.111
AAGTCTTA	-0.192
GTAACAAC	0.234
GGCGTGCA	-0.102
GCTAACAA	0.0453
ACCATAGA	0.141
CGTCGATC	-0.0363
CTCATCGC	-0.0872
GTGCATGA	-0.164
CTAACAAA	0.149

Sequence	PBM E-score
TACACACA	0.212
AACCAGTA	0.164
TCCCCGGA	-0.116
GAACCGCC	-0.0824
CTAGTTTC	0.0706
CAGGGGAA	-0.0896
CGTTCGCC	-0.204
CGTAAGGC	-0.187
ACTTGTAG	-0.0628
GACTTAGC	-0.317
ACAGTGCC	-0.156
ACCTCGGC	0.265
GAAAATTC	-0.0176
TCCTCGAA	0.0949
ATCCGCAC	0.0827
CACAATCA	-0.121
GGATACAC	-0.101
ATCTTGCC	0.0296
AGACGCAT	-0.172
CCATAAAG	0.277
ACTGACTG	-0.214
TAATACTA	0.252
AACGGACA	0.0583
CCTAATGC	0.0581
ACGGAGCC	-0.228

Sequence	PBM E-score
AGGCGTAC	-0.179
ATCTAAAA	0.066
CTGATAAC	0.22
AATTTTTC	0.0448
CGCACTCC	-0.231
ACCCGAAT	0.254
ATTATGCC	0.0789
AGCTACCC	0.268
CAGACATG	-0.22
CGACCGTC	-0.143
ACAACCGA	0.234
AATTCACT	-0.00481
AGCGCGCG	0.126
AAACCTCG	0.119
ACAGTCCT	0.0137
ATTGAAGA	-0.0628
ATCCTCAC	0.0272
AGTGAGAA	0.0644
AGTACCAT	0.127
GCTCGCTA	-0.269
ATAGGAGG	-0.248
TGGAATAA	0.148
CGGTATCC	0.107
ACCACACT	0.0936
TTACCCAA	0.263

Sequence	PBM E-score
ATAAATAT	0.158
CTGAGGGC	-0.236
TAGTGCGA	0.0523
CCCTCGCG	0.188
TAGCTTGA	-0.16
ATAATTGA	0.152
GACGAAGA	-0.139
ATCCCTCC	-0.146
CGTGTAAC	0.119
TCGCACCA	-0.0796
GAGATTAC	-0.001
CGCACGGA	-0.0935
CGGTCGCC	-0.129
CTACACCC	0.163
GCGGCCAC	0.104
ATGAATGG	0.203
CGCAATTC	-0.0164
ACGCGTAA	0.0956
AGGCTCAA	-0.361
ACCCGGAT	0.0925
CGGACCAG	0.0216
ACACGGCG	-0.0492
CAAAGCGC	-0.0526
ATCCCGCC	-0.019
ACCACAGG	0.0993

Sequence	PBM E-score
GGCTATAA	0.0601
AGATAGAT	-0.134
ATCTCACG	-0.234
ATCCTTAG	-0.192
AACCTCAT	0.248
GCAACAGA	-0.0265
GTATACGA	-0.0741
AATGAACA	0.151
CAAAAGGC	0.142
TTAAACAA	0.164
CATCCGGG	0.146
CATTTTCC	0.0529
GGCACGCC	-0.288
ATGTATAC	-0.033
CATTGATC	0.0776
GAACTTTA	-0.025
GACGAGCC	-0.127
CGGGCCTA	-0.0887
CGGCCACA	0.103
GCATGCTA	-0.0627
ACGACCCA	0.2
AACCGCAA	0.277
GTCTCTAA	0.0193
ACACAGTC	0.033
CCGTCTAG	-0.147

Sequence	PBM E-score
CCAAAGCC	-0.202
CTTTCTCC	-0.0469
CTAATCAC	0.157
CTGATGCC	-0.222
ACTACATA	0.113
GCCCTAAC	0.111
AAGGACTG	-0.056
GTTCCCGA	-0.0317
TAGCTATA	-0.0625
CTCATGGC	0.00095
CTCACCAA	0.123
ACGTGCGA	-0.245
ATGGAATC	0.00834
CAGCACCC	0.0359
GCTGGCAC	-0.281
ATTTGTCC	-0.0674
ATCAAGAG	0.121
ATTGGACC	-0.0136
CCTCAGCC	-0.157
GGTCAACC	0.2
GAGAGCAA	-0.227
AGCTTTAA	0.137
GAATCGTA	-0.134
GCTAAACC	-0.0728
AGATTACA	-0.0848

Sequence	PBM E-score
ACTAAGAC	0.0511
GTTCGCGA	0.0574
GAGCCGCC	-0.132
CTGTCCCA	-0.231
CTCGTCAA	-0.253
ACCGAGAC	-0.0569
AGTTATAC	0.104
GCATGTCA	-0.201
CGTCGAAA	0.0714
GCTTCAAC	0.00654
GGCCGAAC	0.0464
CCCTCCGG	0.168
AAATAACC	0.42
AATTTTGG	0.155
CCAAAGAG	0.101
TCGTATAA	0.0885
GAGGTGAA	0.0856
ACGAGTAC	-0.0623
CAACCGTG	0.129
CCCACATC	-0.0026
AGAGGAGG	-0.176
CACGCCCA	-0.0496
